Results are given in words; binding and its absence hold for the method and conditions named. Binding seen in cells or lysates may run through a third protein. Some binding calls cover weakened binding; strength is not graded here.

Protein sequences, listed by entry. Tags and fused reporters are not part of them. Residues count along the entry.
UniProt Q03164, residues 3694-3969: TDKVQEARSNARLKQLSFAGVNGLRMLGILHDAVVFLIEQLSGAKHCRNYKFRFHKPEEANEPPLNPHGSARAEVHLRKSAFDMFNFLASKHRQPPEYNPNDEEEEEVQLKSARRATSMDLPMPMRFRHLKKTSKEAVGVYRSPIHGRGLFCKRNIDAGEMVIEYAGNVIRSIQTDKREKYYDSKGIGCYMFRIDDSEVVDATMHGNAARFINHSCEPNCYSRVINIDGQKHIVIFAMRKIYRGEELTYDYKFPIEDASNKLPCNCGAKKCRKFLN
UniProt Q9BSJ2: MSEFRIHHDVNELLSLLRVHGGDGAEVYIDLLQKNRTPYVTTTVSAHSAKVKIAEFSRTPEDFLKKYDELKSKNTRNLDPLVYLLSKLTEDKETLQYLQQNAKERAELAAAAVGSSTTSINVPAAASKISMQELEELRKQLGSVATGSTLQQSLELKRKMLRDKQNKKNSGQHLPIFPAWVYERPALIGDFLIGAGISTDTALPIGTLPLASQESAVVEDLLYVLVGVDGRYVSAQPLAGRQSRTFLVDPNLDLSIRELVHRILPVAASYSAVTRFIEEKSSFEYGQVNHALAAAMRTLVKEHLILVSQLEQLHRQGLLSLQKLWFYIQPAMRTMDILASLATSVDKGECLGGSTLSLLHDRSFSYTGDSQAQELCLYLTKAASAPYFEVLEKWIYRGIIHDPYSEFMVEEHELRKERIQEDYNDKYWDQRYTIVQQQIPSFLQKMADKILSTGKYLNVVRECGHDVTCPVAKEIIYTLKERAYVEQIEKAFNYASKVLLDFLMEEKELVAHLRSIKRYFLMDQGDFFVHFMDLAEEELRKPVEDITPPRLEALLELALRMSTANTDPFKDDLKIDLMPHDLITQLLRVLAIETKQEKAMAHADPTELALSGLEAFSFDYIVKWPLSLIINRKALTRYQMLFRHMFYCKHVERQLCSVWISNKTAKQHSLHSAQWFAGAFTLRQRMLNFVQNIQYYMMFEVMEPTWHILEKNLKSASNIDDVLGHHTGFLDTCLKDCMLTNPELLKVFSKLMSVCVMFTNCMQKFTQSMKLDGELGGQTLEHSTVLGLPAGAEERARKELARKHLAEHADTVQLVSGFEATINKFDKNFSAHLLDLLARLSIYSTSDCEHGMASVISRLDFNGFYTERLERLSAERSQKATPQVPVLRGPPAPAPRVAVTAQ
UniProt Q8NHV4: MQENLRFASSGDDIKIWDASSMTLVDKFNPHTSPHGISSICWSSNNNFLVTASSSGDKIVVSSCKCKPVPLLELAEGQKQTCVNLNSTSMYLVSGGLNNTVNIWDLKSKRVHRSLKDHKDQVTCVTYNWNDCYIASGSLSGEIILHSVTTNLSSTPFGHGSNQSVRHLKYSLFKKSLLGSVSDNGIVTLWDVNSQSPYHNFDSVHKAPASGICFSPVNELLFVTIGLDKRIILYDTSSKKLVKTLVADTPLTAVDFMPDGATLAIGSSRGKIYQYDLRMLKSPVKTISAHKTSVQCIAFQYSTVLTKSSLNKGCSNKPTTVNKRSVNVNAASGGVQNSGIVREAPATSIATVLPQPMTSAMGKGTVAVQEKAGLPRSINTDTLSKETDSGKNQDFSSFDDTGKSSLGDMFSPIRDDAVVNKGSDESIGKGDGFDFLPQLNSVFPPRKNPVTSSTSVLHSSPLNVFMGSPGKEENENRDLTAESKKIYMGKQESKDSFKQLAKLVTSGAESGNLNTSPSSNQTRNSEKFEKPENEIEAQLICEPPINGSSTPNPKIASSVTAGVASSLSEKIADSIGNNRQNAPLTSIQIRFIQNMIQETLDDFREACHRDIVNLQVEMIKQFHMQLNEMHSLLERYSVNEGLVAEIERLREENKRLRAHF

Assay [1] addresses GST-MLLCD3 (3694 to 3969 amino acids) (human) (UniProt Q03164). The assay is described as follows: pull-down; GST fusion protein bound to glutathione agarose beads incubated with HeLa whole-cell lysate for 3 hours, washed three times [15 mM tris (pH 7.4), 100 mM KCl, 0.02% NP-40, 1 mM DTT, 1 mM PMSF]; SDS-PAGE and Western blot; only the target purified. For orientation: Immunoblotting shows a protein as a band on a membrane.

In assay [2] the target is Cep72 (endogenous) (human (endogenous in HeLa)) (UniProt Q9P209). Put plainly: co-IP; endogenous proteins immunoprecipitated from precleared HeLa cell lysate with anti-MLLC, anti-WDR5 or anti-Cep72 overnight at 4°C, Protein A Sepharose beads; anti-immunoglobulin G as mock IP; Western blot.
The target in assay [3] is GST-Cep72 (human) (UniProt Q9P209). Put plainly: pull-down; GST fusion protein bound to glutathione agarose beads incubated with HeLa whole-cell lysate for 3 hours, washed three times [15 mM tris (pH 7.4), 100 mM KCl, 0.02% NP-40, 1 mM DTT, 1 mM PMSF]; SDS-PAGE and Western blot; only the target purified.

For the substance “Cep72 (endogenous) (from UniProt Q9P209 1-647)”, the binding entry in assay [1] was “binds”.
“GCP2 (endogenous) (from UniProt Q9BSJ2 1-902)”: the binding entry in assay [2], in assay [3] and in assay [1] was “binds” in each case.
For “NEDD1 (endogenous) (from UniProt Q8NHV4 1-660)”, the binding entry in assay [3] and in assay [1] was “no binding” each time.

The values are drawn from publication PMC11633745.
